Reference: PubChem BioAssay AID1347055 (National Center for Advancing Translational Sciences (NCATS), 2019)
Values joined by “and” are separate entries in the source; they are usually repeats but may differ in a detail not shown here. Identical values can stand only once. The campaign covered roughly 54,000 compounds. About 120 (0.22%) were called active. The shares of active, inactive and inconclusive entries below differ from those in the screen. Calls follow the shape of the dose curve; as a rule, active = well fitted inhibition curve with a large enough effect; inconclusive = small, poorly fitted or top-dose-only effect, or effect the other way; inactive = flat fitted curve, though single readings scatter. A potency beside an inconclusive call is a rough fit, not a confirmed value.

Biological target: Fumarate hydratase, mitochondrial (Homo sapiens) (UniProt P07954)
UniProt P07954, sequence (P07954 whole entry, looked up): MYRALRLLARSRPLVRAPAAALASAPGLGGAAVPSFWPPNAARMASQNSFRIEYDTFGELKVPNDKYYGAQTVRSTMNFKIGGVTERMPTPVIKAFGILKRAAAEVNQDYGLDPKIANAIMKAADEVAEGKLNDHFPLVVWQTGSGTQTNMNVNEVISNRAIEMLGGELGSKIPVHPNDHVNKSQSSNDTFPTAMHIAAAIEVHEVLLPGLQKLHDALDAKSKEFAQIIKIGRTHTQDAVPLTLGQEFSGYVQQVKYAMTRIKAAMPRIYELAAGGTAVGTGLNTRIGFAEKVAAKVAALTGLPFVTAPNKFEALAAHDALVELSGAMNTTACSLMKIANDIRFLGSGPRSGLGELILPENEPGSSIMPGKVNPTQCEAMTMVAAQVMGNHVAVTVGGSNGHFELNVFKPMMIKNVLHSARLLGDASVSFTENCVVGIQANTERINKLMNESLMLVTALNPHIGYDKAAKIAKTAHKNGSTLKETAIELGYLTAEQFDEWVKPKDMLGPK
Assay: Identification of activators of human fumarate hydratase by quantitative high-throughput screening; also: the screen sought activators but most active calls are inhibition curves; nearly all actives have a fitted effect of over 45% in size
Details: FH coupled MDH/diaphorase resazurin fluorescence, 15 min; activity change, negative = inhibition: at 79.9 µM (top of the series)
% is scaled to controls: 0 for no effect and ±100 for the full control effect; potency is read from the fitted curve at half-maximal effect; tags tell the direction and shape of the fitted curve.

| Compound | Potency | activity change, negative = inhibition |
| --- | --- | --- |
| Cc1c2cnn(CC(=O)N3CCN(c4ccc(F)cc4)CC3)c(=O)c2c(C)n1Cc1ccccc1F | inconclusive: 44.7 µM [inhibitor, partial curve, poor fit] | – |
| CC(C)OCCCN1C(=O)c2[nH]nc(-c3ccccc3O)c2C1c1cccc(OCc2ccccc2)c1 (stereo not drawn) | inconclusive: 28.2 µM [inhibitor, partial curve, poor fit] | – |
| O=C(CC1Nc2cccc3cccc(c23)NC1=O)Nc1ccc(F)cc1 (stereo not drawn) | inactive | – |
| CCCSc1nnc2n(-c3cccc(C)c3)c(=O)c3c4c(sc3n12)CCCC4 | inconclusive: 28.2 µM [inhibitor, partial curve] | – |
| CCc1ccc(NC(=O)c2ccc(F)c(S(=O)(=O)NCCc3ccc(OC)c(OC)c3)c2)cc1 | inconclusive: 12.6 µM [inhibitor, partial curve] | – |
| COc1cccc(Nc2sc(C(=O)c3ccc(Cl)cc3)c(N)c2C(=O)NCCc2ccc(OC)c(OC)c2)c1 | inconclusive: 22.4 µM [activator, partial curve, poor fit] | – |
| CS(=O)(=O)N1CCc2cc(C(=O)Nc3ccc(S(N)(=O)=O)cc3)ccc21 | inactive | – |
| CCS(=O)(=O)c1ncc(Cl)c(C(=O)N(Cc2ccccc2)c2ccc(OC)cc2)n1 | inactive | – |
| CC(C)CCNc1ncnc2c1cnn2-c1cccc(Cl)c1 | inactive | – |
| CC(C)c1ccc(S(=O)(=O)Nc2ccc(O)c(Sc3nc4ccccc4s3)c2)cc1 | inconclusive: 50.1 µM [inhibitor, single point] | – |
| CCCCNC(=O)C1CCCN(c2nnc(C)c3c(C)n(-c4ccc(Cl)cc4)nc23)C1 (stereo not drawn) | inconclusive: 31.6 µM [inhibitor, partial curve, poor fit] | – |
| NS(=O)(=O)c1cccc2c1c([N+](=O)[O-])cc1nc(O)c(O)nc12 | active: 17.8 µM | – |
| CCc1ccc(NC(=O)CSC2=Nc3ccccc3C3=NC(CC(=O)NCc4ccc5c(c4)OCO5)C(=O)N23)cc1 (stereo not drawn) | inconclusive: 22.4 µM [inhibitor, partial curve, poor fit] | – |
| CCCCCCCOc1cc2c(cc1/C(C)=C/c1ccc(C(=O)O)cc1)C(C)(C)CCS2(=O)=O | inconclusive: 35.5 µM [inhibitor, single point] | – |
| COCCN1C(=O)c2[nH]nc(-c3c(C)cc(C)cc3O)c2C1c1cccc(O)c1 (stereo not drawn) | inactive | – |
| Cc1ccc(Cl)cc1NC(=O)c1cccc(NC(=O)N2CCSc3ncccc32)c1 | inactive | – |
| COc1ccc2c(c1)C=C1Cn3c-2c(C2CCCCC2)c2ccc(cc23)C(=O)NS(=O)(=O)N(C)CCOCCN(C)C1=O | inconclusive: 35.5 µM [inhibitor, single point] | – |
| O=C(CC1N=C2c3ccccc3N=C(SCc3cccc(Cl)c3)N2C1=O)NC1CCCCC1 (stereo not drawn) | – | inconclusive: -35.2% [inhibitor] |
| CCOc1ccccc1NC(=O)c1c(NCc2ccc(OC)c(OC)c2OC)sc2c1CCC(C)C2 (stereo not drawn) | inconclusive: 3.16 µM [inhibitor, full curve, poor fit] | – |
| COCCNc1cc(N2CCN(C3CCCCC3)CC2)c2noc3c2c1C(=O)c1ccccc1-3 | inconclusive: 28.2 µM [inhibitor, partial curve, poor fit] | – |
| COc1cccc(C(=O)N2CCC(c3nc4ccccc4s3)CC2)c1 | inactive | – |

| Compound | Potency | activity change, negative = inhibition |
| --- | --- | --- |
| COc1ccc(CCNc2ncnc3c2c(-c2ccccc2)cn3-c2ccc(F)cc2)cc1OC | inconclusive: 28.2 µM [inhibitor, partial curve, poor fit] | – |
| Cc1ccc(-n2ncc3c(N4CCN(CCO)CC4)ncnc32)cc1Cl | inactive | – |
| CN(C)c1ccc2nc3ccc(=[N+](C)C)cc-3sc2c1 | inconclusive: 19.3 µM [inhibitor, partial curve, poor fit] and inconclusive: 21.9 µM [inhibitor, partial curve] | – |
| COc1ccc(C(=O)Nc2nc3c(s2)CCc2cc(OC)ccc2-3)cc1 | inconclusive: 28.2 µM [inhibitor, partial curve, poor fit] | – |
| CC(C)(C)n1cnc2cc(NCc3ccccc3Cl)ccc21 | inconclusive: 20 µM [inhibitor, partial curve] | – |
| CN1C(=O)c2ccccc2Sc2ccc(NC(=O)COc3ccccc3)cc21 | inactive | – |
| CCn1cc(C(=O)NCCCN(CC(C)C)CC(C)C)c(=O)c2cc(S(=O)(=O)N(C)C3CCCCC3)ccc21 | inconclusive: 28.2 µM [inhibitor, partial curve] | – |
| CCOc1ccc(CCNCc2c(C(=O)O)n(Cc3ccc(C)cc3)c3cc(OC)ccc23)cc1 | inconclusive: 39.8 µM [inhibitor, partial curve, poor fit] | – |
| CSc1cccc(NC(=O)C2CCN(c3ncnc4c3nc3n4CCCCC3)CC2)c1 | inconclusive: 39.8 µM [inhibitor, single point] | – |
| CCN(CC)C(=O)Cn1cc(SCC(=O)Nc2ccccc2F)c2ccccc21 | inconclusive: 35.5 µM [inhibitor, partial curve, poor fit] | – |
| O=C(COCc1cc(-c2cccs2)on1)Nc1cccc(Cl)c1Cl | – | inconclusive: -37.4% [inhibitor] |
| CC(=O)c1cccc(NC(=O)c2cccn2-c2nnc(N3CCCCC3)s2)c1 | inactive | – |
| COc1ccc(CCNC(=O)c2cc(Nc3cc(C)cc(C)c3)nc3ccccc23)cc1OC | inconclusive: 14.1 µM [inhibitor, partial curve, poor fit] | – |
| COc1ccccc1CNC(=O)CCc1c(C)nc2cc(-c3ccccc3OC)nn2c1C | inactive | – |
| COc1ccccc1CNC(=O)C1CCCN(c2nn3cc(-c4ccc(F)cc4)nc3s2)C1 (stereo not drawn) | inconclusive: 31.6 µM [inhibitor, single point] | – |
| CCOC(=O)c1c(NC(=O)/C=C/c2ccc(OC)c(OC)c2)sc(C(C)=O)c1C | inactive | – |
| CC(=O)c1cccc(NC(=O)CCCN2C(=O)COc3ccc(C)cc32)c1 | inactive | – |
| CC(C)C(=O)OC[C@H]1O[C@@H](n2ccc(N)nc2=O)[C@](C)(F)[C@@H]1OC(=O)C(C)C | inactive | – |
| Cc1cc(OCCCn2c(CCNC(=O)C3CCCCC3)nc3ccccc32)ccc1Cl | inconclusive: 39.8 µM [inhibitor, single point] | – |
| COc1ccc2c(Sc3ccc(C)cc3)c(C(=O)NCCc3ccccc3)[nH]c2c1 | inactive | – |
| C=C1CC[C@H]2[C@@](C)(CCC(OC3OC(CO)C(O)C(O)C3O)[C@@]2(C)CO)C1C(=O)CC1=CCOC1=O (stereo partly drawn) | inactive | – |

| Compound | Potency | activity change, negative = inhibition |
| --- | --- | --- |
| CCN1C(C)(C)CC(Oc2ccc(C(=O)Nc3ccc(NC(=O)Nc4cc(C(C)(C)C)on4)cc3)nc2)CC1(C)C | inconclusive: 50.1 µM [activator, partial curve, poor fit] | – |
| COc1ccc2c(CNCc3ccccc3OC)c(C(=O)O)n(Cc3ccc(F)cc3Cl)c2c1 | inconclusive: 17.8 µM [inhibitor, partial curve, poor fit] | – |
| CCc1ccc(NC(=O)C(NS(=O)(=O)c2cccc3nsnc23)c2ccccc2)cc1 (stereo not drawn) | inconclusive: 22.4 µM [inhibitor, partial curve, poor fit] | – |
| CC(=O)c1c(C)oc2ccc(N(C(=O)Oc3ccccc3)S(=O)(=O)c3ccccc3)cc12 | inactive | – |
| COc1ccc(-n2nnc(-c3nsc(NC(=O)c4cccs4)n3)c2C)cc1OC | inconclusive: 50.1 µM [inhibitor, single point] | – |
| COc1cccc(C(=O)NCC(c2ccc(N(C)C)cc2)N2CCc3ccccc32)c1 (stereo not drawn) | – | inconclusive: -30.8% [inhibitor] |
| CC(=O)c1cccc(Nc2nc(-c3cccc(C)c3)nc3ccccc23)c1 | inconclusive: 20 µM [inhibitor, partial curve] | – |
| COc1cc(NC(=O)c2cc3c(s2)-c2ccccc2OC3)cc(OC)c1OC | inconclusive: 31.6 µM [inhibitor, partial curve, poor fit] | – |
| CCSc1oc(-c2ccco2)nc1S(=O)(=O)c1ccc(Br)cc1 | inconclusive: 20 µM [inhibitor, partial curve] | – |
| C#C[C@]1(O)CC[C@H]2[C@@H]3CCc4cc(OC5CCCC5)ccc4[C@H]3CC[C@@]21C | inconclusive: 34.7 µM [inhibitor, single point] | – |
| Cc1ccc(CN2CCc3nc(Nc4ccc5c(c4)OCCO5)ncc3C2)cc1 | inactive | – |
| CCc1ccc(NC(=O)CSc2ccc(-c3ccccn3)nn2)cc1 | inactive | – |
| Cc1cccc(-c2nc3c4ccccc4n(Cc4cccc(Cl)c4)c(=O)n3n2)c1 | inactive | – |
| CCc1cccc(NS(=O)(=O)c2ccc(-n3cccn3)cc2)c1 | inactive | – |
| CCOC(=O)c1ccc(NC(=O)CC2Sc3ccc(C(F)(F)F)cc3NC2=O)cc1 (stereo not drawn) | inactive | – |
| COc1ccc(NC(=O)CSC2=Nc3ccccc3C3=NC(CCC(=O)NCc4ccc(F)cc4)C(=O)N23)cc1Cl (stereo not drawn) | inconclusive: 28.2 µM [inhibitor, partial curve, poor fit] | – |
| Cc1cc(NC(=O)CCNS(=O)(=O)c2ccc3c(c2)CCCC(=O)N3)ccc1Br | inactive | – |
| CCOc1cccc(C(=O)N(Cc2ccc(N(C)C)cc2)CC2CCCO2)c1 (stereo not drawn) | inconclusive: 3.16 µM [inhibitor, partial curve, poor fit] | – |
| Cc1ccccc1CC1C(=O)Nc2ccc(Br)cc21 (stereo not drawn) | inactive | – |
| Cn1c(=O)n(C)c2cc(N3CCOCC3)c(NS(=O)(=O)c3ccc(C(C)(C)C)cc3)cc21 | inconclusive: 1.41 µM [inhibitor, full curve] | – |
| O=C(O)c1c(-c2ccccc2)oc2ccc(OCc3ccc(Cl)c(Cl)c3)cc12 | inconclusive: 28.2 µM [inhibitor, partial curve] | – |
